Like-named read-outs stand apart in the source and are kept apart here.
Key:
[1] = system: rabbit eyes; test: Schirmer scores in rabbits after a single instillation; type: in vivo, albino rabbit; settings: for rank order of potency (highest to lowest): 10 minutes post-dosing; for rank order of potency: 30 minutes post-dosing; for Schirmer scores compared with saline or untreated controls: single 50 μL topical instillation of 50 mM solution
Experimental: This study was designed to investigate the effects of three synthetic P2Y2 receptor agonists, U2P4, dCp4U, and p-Br-phenyl-ethenoCp4U, on tear fluid secretion following a single instillation in albino rabbits.
Each of three cohorts of rabbits (10 animal/cohort) was given a single 50 μL instillation of isotonic and pH-neutral solution of 50 mM U2P4, dCp4U, and p-Br-phenyl-ethenoCp4U, in one eye per animal. The contralateral eye was untreated. A fourth control cohort was given isotonic saline in one eye and untreated in the contralateral eye. Tear secretion was measured using Schirmer strips placed into each eye for 15 seconds at baseline (3 hr before first instillation) and at 10 min, 0.5, 1, 2, and 3 hr post-instillation.

[2] = system: rabbit eyes; test: Rabbit tear secretion by Schirmer test, nucleotides and diadenosine polyphosphates; type: in vivo, New Zealand white rabbit; settings: for tear secretion (Schirmer score) as percent saline control: single dose 10 μg/μl, 10 μl, strip 5 min, mean ± S.E.M.; for EC50: Oryctolagus cuniculus; for maximal effect on tear secretion: concentration-effect curves, percent of saline control, FIG. 4
Experimental: Tear secretion was measured according to the Schirmer test. Briefly, 10 μl of the test compound at the indicated concentrations were instilled via pipette in the eye. […] Control experiments were performed by applying 10 μl of saline solution (NaCl 0.9%). Tear secretion was measured as the length (mm) of the strip wetted by the tears.
Single-dose experiments were carried out by applying 10 μl of the corresponding nucleotide or dinucleotide at a concentration of 10 μg/μl. Dose-response analysis was performed by instilling doses ranging from 10^−10 to 10^−4 g/μl, always in a volume of 10 μl. Concentration-response curves were done by applying different doses in a non-cumulative fashion in one of the rabbit eyes, with the contralateral eye receiving the same volume of saline solution (control). Transformation of g/μl units into molar concentrations was performed by factoring in the corresponding molecular weight of each dinucleotide for each data point. The values presented are the means ±S.E.M. of 8 to 12 experiments performed in 36 different animals. Statistical significance between treated and non-treated animals was estimated by the Student's t-test.
In order to determine whether or not mononucleotides were able to modify rabbit tear secretion, single doses of ATP, UTP, ADP and UDP were instilled via pipette at 10 μg/μl (final volume 10 μl). […] Control experiments were performed by applying 10 μl of saline solution (NaCl 0.9%). Tear secretion was measured as the length (mm) of the strip wetted by the tears and values were expressed as percent saline control (***P<0.001; **P<0.05) compared to saline solution (Student's t-test).

[3] = target: human P2Y2 receptor (Homo sapiens, UniProt P41231); test: Intracellular Ca2+ mobilization (FLIPR) in 1321N1 cells expressing P2Y2; type: cell-based
Chain of UniProt P41231 (P41231 whole entry): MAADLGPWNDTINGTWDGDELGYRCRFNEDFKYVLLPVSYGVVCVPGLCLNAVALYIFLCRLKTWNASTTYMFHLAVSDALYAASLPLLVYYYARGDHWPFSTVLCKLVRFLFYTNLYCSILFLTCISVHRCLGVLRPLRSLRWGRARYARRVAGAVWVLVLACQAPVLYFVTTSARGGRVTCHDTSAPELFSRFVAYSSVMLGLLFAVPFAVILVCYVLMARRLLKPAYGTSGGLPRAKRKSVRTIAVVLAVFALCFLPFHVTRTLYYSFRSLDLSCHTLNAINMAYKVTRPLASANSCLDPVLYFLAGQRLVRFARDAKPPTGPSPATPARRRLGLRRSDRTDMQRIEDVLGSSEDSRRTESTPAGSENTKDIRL
Experimental: For intracellular Ca^2+ measurements, cells were seeded in 96-well black wall/clear bottom culture plates (#3904 Corning Inc., Corning, N.Y.), at a density of 35,000 cells per well and assays conducted 2 days later when the cells had reached confluence.
On the day of the assay, the growth medium in the culture plates was aspirated and replaced with 2.5 μM Fluo-3-AM in a final volume of 50 μl and incubated for one hour at 25° C. Then, the dye was replaced with assay buffer (10 mM KCl, 118 mM NaCl, 2.5 mM CaCl2, 1 mM MgCl2, 10 mM glucose, and 20 mM HEPES, pH 7.4), using a Columbus Plate Washer, (Tecan Inc., Research Triangle Park, N.C.). Intracellular Ca^2+ levels in response to P2Y receptor agonists was monitored as changes in fluorescence intensity using a Fluorescent Light Imaging Plate Reader (FLIPR) (Pendergast et al., 2001) from Molecular Devices (Sunnyvale, Calif.). Average Fluorescence Units (AFU) corresponding to peak height were captured on disk and exported for further analysis. Changes in fluorescence data corresponding to concentrations of intracellular Ca^2+ were normalized to the response of the cognate agonists (2MeSADP for P2Y1 receptor, ATP for P2Y2 receptor, UTP for P2Y4 receptor, UDP for P2Y6 receptor, and ATP for P2Y11 receptor).
(§1) Agonist potencies were calculated using a four-parameter logistic equation and the GraphPad software package (San Diego, Calif.). […] Three experiments using triplicate assays were conducted on separate days for each P2Y receptor subtype.

[4] = target: human P2Y1 receptor (Homo sapiens, UniProt P47900); test: Intracellular Ca2+ mobilization (FLIPR) in 1321N1 cells expressing P2Y1; type: cell-based
Chain of UniProt P47900 (P47900 whole entry): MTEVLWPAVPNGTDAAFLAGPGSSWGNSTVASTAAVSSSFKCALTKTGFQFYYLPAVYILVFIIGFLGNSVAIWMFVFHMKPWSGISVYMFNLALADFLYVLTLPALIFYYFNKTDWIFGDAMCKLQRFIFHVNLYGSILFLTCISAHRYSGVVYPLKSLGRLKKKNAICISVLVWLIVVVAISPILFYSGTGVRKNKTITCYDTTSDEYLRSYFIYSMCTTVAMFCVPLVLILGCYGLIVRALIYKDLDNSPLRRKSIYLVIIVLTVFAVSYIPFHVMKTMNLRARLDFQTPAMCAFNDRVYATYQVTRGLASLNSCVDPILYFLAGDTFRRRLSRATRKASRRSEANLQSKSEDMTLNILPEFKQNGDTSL
Experimental: Average Fluorescence Units (AFU) corresponding to peak height were captured on disk and exported for further analysis. Changes in fluorescence data corresponding to concentrations of intracellular Ca^2+ were normalized to the response of the cognate agonists (2MeSADP for P2Y1 receptor, ATP for P2Y2 receptor, UTP for P2Y4 receptor, UDP for P2Y6 receptor, and ATP for P2Y11 receptor).
as §1

[5] = target: avian P2Y1 receptor (Gallus gallus, UniProt P34996); settings: Pintor et al. 1996; cited from earlier work
Chain of UniProt P34996 (P34996 whole entry): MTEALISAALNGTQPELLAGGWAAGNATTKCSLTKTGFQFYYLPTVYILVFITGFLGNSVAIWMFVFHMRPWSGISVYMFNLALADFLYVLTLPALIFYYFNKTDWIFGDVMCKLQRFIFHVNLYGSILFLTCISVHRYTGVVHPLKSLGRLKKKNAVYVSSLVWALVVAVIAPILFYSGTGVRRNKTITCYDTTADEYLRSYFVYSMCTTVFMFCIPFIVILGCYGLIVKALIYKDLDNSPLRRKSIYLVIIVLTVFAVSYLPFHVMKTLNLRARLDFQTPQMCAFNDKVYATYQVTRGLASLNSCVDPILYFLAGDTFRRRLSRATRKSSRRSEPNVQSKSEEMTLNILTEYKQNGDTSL

[6] = post-dosing, 50 mM single instillation
[7] = 1321 astrocytoma cells, n=3, read-out: EC50 for intracellular calcium mobilization, P2Y2 receptor
[8] = 1321 astrocytoma cells, n=3, read-out: pD2 for intracellular calcium mobilization, P2Y2 receptor (converted)
[9] = 1321 astrocytoma cells, n=3, read-out: EC50 for intracellular calcium mobilization, P2Y1 receptor
[10] = 1321 astrocytoma cells, n=3, read-out: pD2 for intracellular calcium mobilization, P2Y1 receptor (converted)
[11] = concentration-effect curves 10^−10 to 10^−4 g/μl, n=8, read-out: pD2 for tear secretion (converted)
[12] = corresponding to the pD2 values, read-out: EC50 for tear secretion
[13] = mobilization of intracellular Ca2+

| EC50 [3, 7] | EC50 [4, 9] | EC50 [4, 10] | EC50 [2, 11] | EC50 [2, 12] | Compound | tear secretion (Schirmer score) as percent saline control [2] | maximal effect on tear secretion [2] | also measured |
| --- | --- | --- | --- | --- | --- | --- | --- | --- |
|  |  |  |  |  | P^1-(bromophenyletheneocytidine 5′-) P^4-(uridine 5′-)tetraphosphate [p-Br-phenyl-ethenoCp4U] |  |  | rank order of potency (highest to lowest) ([1]; 50 mM single instillation): U2P4≈p-Br-Phenyl-ethenoCp4U>dCp4U; rank order of potency ([1]; 50 mM single instillation): dCp4U≈U2P4>p-Br-Phenyl-ethenoCp4U; Schirmer scores, difference among treatment groups ([1]; 1 hour post-treatment): significantly higher Schirmer scores than dCp4U; time for which tear secretion remained slightly elevated [1, 6]: up to 2 hours; Schirmer scores compared with saline or untreated controls [1]: significantly increased Schrimer scores |
|  |  |  |  |  | Nc1ncnc2c1ncn2[C@@H]1O[C@H](COP(=O)(O)OP(=O)(O)OP(=O)(O)O)[C@@H](O)[C@H]1O [ATP, adenosine 5′-triphosphate] | 131±6% |  |  |
| 2640 nM | 1660 nM | 1700 nM | 1780 nM | 1770 nM | Nc1ncnc2c1ncn2C1OC(COP(=O)(O)OP(=O)(O)OP(=O)(O)OP(=O)(O)OP(=O)(O)OCC2OC(n3cnc4c(N)ncnc43)C(O)C2O)C(O)C1O (stereo not drawn) [Ap5A, P^1, P^5di(adenosine-5′-)pentaphosphate] | 126±6% | 125±7% | EC50 [3, 8]: 2690 nM |
| 93 nM | 160 nM | 170 nM | 2750 nM | 2760 nM | Nc1ncnc2c1ncn2[C@@H]1O[C@H](COP(=O)(O)OP(=O)(O)OP(=O)(O)OP(=O)(O)OC[C@H]2O[C@@H](n3cnc4c(N)ncnc43)[C@H](O)[C@@H]2O)[C@@H](O)[C@H]1O [Ap4A, P^1, P^4-di(adenosine 5′-)tetraphospate] | 162±3% | 162±2.4% | activation of P2Y2 receptor [3, 13]: activated by Ap4A at a similar low concentration; EC50 values at avian P2Y1 receptor [5]: nM range |
| 5180 nM | 1770 nM | 1780 nM | 3160 nM | 3160 nM | Nc1ncnc2c1ncn2C1OC(COP(=O)(O)OP(=O)(O)OP(=O)(O)OP(=O)(O)OP(=O)(O)OP(=O)(O)OCC2OC(n3cnc4c(N)ncnc43)C(O)C2O)C(O)C1O (stereo not drawn) [Ap6A, P^1, P^6-di(adenosine-5′-)hexaphosphate] | 125±15% | 125±7% | EC50 [3, 8]: 5250 nM |
|  |  |  |  |  | Nc1ncnc2c1ncn2[C@@H]1O[C@H](COP(=O)(O)OP(=O)(O)O)[C@@H](O)[C@H]1O [ADP, reference compound] | 107±1% |  |  |
|  |  |  |  |  | O=c1ccn([C@@H]2O[C@H](COP(=O)(O)OP(=O)(O)O)[C@@H](O)[C@H]2O)c(=O)[nH]1 [UDP, reference compound] | 105±2% |  |  |
|  |  |  |  |  | O=c1ccn([C@@H]2O[C@H](COP(=O)(O)OP(=O)(O)OP(=O)(O)O)[C@@H](O)[C@H]2O)c(=O)[nH]1 [UTP, uridine 5′-triphosphate] | 160±8% |  |  |
|  |  |  |  |  | Nc1ccn([C@H]2C[C@H](O)[C@@H](COP(=O)(O)OP(=O)(O)OP(=O)(O)OP(=O)(O)OC[C@H]3O[C@@H](n4ccc(=O)[nH]c4=O)[C@H](O)[C@@H]3O)O2)c(=O)n1 [dCp4U, P^1-(deoxycytidine 5′-) P^4-(uridine 5′)-tetraphosphate] |  |  | rank order of potency (highest to lowest) ([1]; 50 mM single instillation): U2P4≈p-Br-Phenyl-ethenoCp4U>dCp4U; rank order of potency ([1]; 50 mM single instillation): dCp4U≈U2P4>p-Br-Phenyl-ethenoCp4U; time by which tear secretion returned to pretreatment levels [1, 6]: ≤ 1 h; Schirmer scores compared with saline or untreated controls [1]: significantly increased Schrimer scores |

| Compound | EC50 [3, 7] | EC50 [4, 9] | EC50 [4, 10] | EC50 [2, 11] | EC50 [2, 12] | tear secretion (Schirmer score) as percent saline control [2] | maximal effect on tear secretion [2] | also measured |
| --- | --- | --- | --- | --- | --- | --- | --- | --- |
| diadenosine triphosphate [Ap3A] | 19600 nM | 9 nM |  |  |  | 89±7% |  | pD2 for intracellular calcium mobilization, P2Y2 receptor ([3]; 1321 astrocytoma cells, n=3): 4.70; pD2 for intracellular calcium mobilization, P2Y1 receptor ([4]; 1321 astrocytoma cells, n=3): 8.05; activation of P2Y1 receptor [4, 13]: fully activated by submicromolar concentrations; change on tear secretion ([2]; even at the highest concentrations assayed, n=8): failed to produce any change on tear secretion |

Source: patent publication US6696425B2, “Method of treating dry eye disease with purinergic receptor agonists” (Inspire Pharmaceuticals, Inc., priority 1997, dated 2004)
